Data taken from the RNAGym collection of RNA variant scans (doi:10.7554/elife.90254).
The source gives no read counts; variants with many changes may rest on few reads.

B1: LINE1-full (parent)
chain: UACGUAGGUGGUUUUCCCCUGAUAGUGCUAAGGGGGCCUGGAAGUUUGGACUGGGCAGAGCUCAACACAGCGUGGCAAAGUGGCUGUGGCUAGACUGCCUCUCUGGAUUCCUCGUCACUCAGCAGGGCAUCUCUGAGAGAAAUGCC

Variants of: B1
Experiment: self-cleavage, relative activity (ratio to wild type); higher = more cleavage; in vitro, sequencing; the parent is a self-cleaving ribozyme

With U39C A43G U109C as the variant, how does the self-cleavage read?
The self-cleavage was 0.

With U12C U14C A69U U100C U130C as the variant, how does the self-cleavage read?
The self-cleavage was 0.37.

Which self-cleavage does the source give for C19U U39C U45C A64U U87C A136G here?
Its self-cleavage is 0.09.

For C61U C71U C84G U132A, which self-cleavage is on record?
The self-cleavage was 0.02.

With G55A A57C U143C as the variant, how does the self-cleavage read?
Its self-cleavage is 0.09.

Which self-cleavage does the source give for U15C G35A U81A U100C here?
Its self-cleavage is 1.67.

For A43U U81C U87G, which self-cleavage is on record?
Its self-cleavage is 0.4.

Which self-cleavage does the source give for U12C A30U U81A here?
Its self-cleavage is 1.7.

Which self-cleavage does the source give for U109A U132C A140G A142G here?
The self-cleavage was 0.38.

With A79G U81C A140G as the variant, how does the self-cleavage read?
Its self-cleavage is 0.

With U1C U15A U46C A69U as the variant, how does the self-cleavage read?
The self-cleavage was 0.08.

For U13C U39A A78G, which self-cleavage is on record?
The self-cleavage was 2.1.

With U1C U12C U119C as the variant, how does the self-cleavage read?
The self-cleavage was 1.6.

For U5C U14A C111U A136U, which self-cleavage is on record?
Its self-cleavage is 1.28.

For G58A U73C A77G A79U U100C A129G A141U, which self-cleavage is on record?
Its self-cleavage is 0.

With C19A U104A A107G as the variant, how does the self-cleavage read?
Its self-cleavage is 0.73.

Which self-cleavage does the source give for U52C A57G U81C here?
Its self-cleavage is 0.

With A117G U119C A142G as the variant, how does the self-cleavage read?
Its self-cleavage is 1.84.

For U20A A24U A50U A67G, which self-cleavage is on record?
Its self-cleavage is 0.35.

Which self-cleavage does the source give for U26A G72U A136G A142U here?
Its self-cleavage is 1.59.

With U46A A94G A138G C145U as the variant, how does the self-cleavage read?
Its self-cleavage is 0.34.

For U52A U73C G75U A77G, which self-cleavage is on record?
The self-cleavage was 0.43.

For U12C A121C A129U A138G, which self-cleavage is on record?
The self-cleavage was 0.88.

Which self-cleavage does the source give for U100C U104G G114A here?
The self-cleavage was 0.59.

Which self-cleavage does the source give for A67G G114A U115A here?
The self-cleavage was 0.36.

For G27A A43G U45A U119A, which self-cleavage is on record?
Its self-cleavage is 2.55.

With U12A U20A U85C as the variant, how does the self-cleavage read?
The self-cleavage was 0.39.

For A30G C63U G80U, which self-cleavage is on record?
Its self-cleavage is 0.58.

Which self-cleavage does the source give for U12C U14C A42U here?
Its self-cleavage is 0.88.

Which self-cleavage does the source give for U39C U46C G55A A59G here?
The self-cleavage was 0.08.

With U14C A22G A50G A69G A121U as the variant, how does the self-cleavage read?
The self-cleavage was 0.

For U15A U46C U109G, which self-cleavage is on record?
Its self-cleavage is 1.93.

For A30U G55A A67G, which self-cleavage is on record?
The self-cleavage was 0.02.

Which self-cleavage does the source give for G21A U102C A136U here?
Its self-cleavage is 1.02.

Which self-cleavage does the source give for A2G A43G U134C here?
The self-cleavage was 0.33.

Which self-cleavage does the source give for A6G U12A U14A G60A U87C U132G here?
The self-cleavage was 0.19.

Which self-cleavage does the source give for U14A U96C A138G here?
Its self-cleavage is 0.45.

For U39A A43G A107U, which self-cleavage is on record?
Its self-cleavage is 1.23.

Which self-cleavage does the source give for U87C U100C U130A here?
The self-cleavage was 0.16.

For U12C A64G A124G, which self-cleavage is on record?
Its self-cleavage is 0.

For U1C A22G U47C C133U, which self-cleavage is on record?
The self-cleavage was 2.04.

For A6G G11C A136G, which self-cleavage is on record?
Its self-cleavage is 1.25.

With A124G U130C U132C as the variant, how does the self-cleavage read?
Its self-cleavage is 2.12.

Which self-cleavage does the source give for A30U G54A U85G here?
Its self-cleavage is 0.12.

Which self-cleavage does the source give for U45A U102C U134A A141G here?
The self-cleavage was 2.25.

Which self-cleavage does the source give for U12C U62C U73C A107U U108C here?
Its self-cleavage is 0.26.

For A24U G36A A78G A136U, which self-cleavage is on record?
The self-cleavage was 1.34.

For G34U A94U G122U, which self-cleavage is on record?
Its self-cleavage is 0.19.

Which self-cleavage does the source give for U12G A30G U73A here?
The self-cleavage was 1.84.

For A24U A78G U81C, which self-cleavage is on record?
Its self-cleavage is 0.27.

For G34A G36A U45C C116U, which self-cleavage is on record?
Its self-cleavage is 0.54.

With A2U C18U A42G G126A as the variant, how does the self-cleavage read?
Its self-cleavage is 0.83.

With G36C A77G U112A A129U as the variant, how does the self-cleavage read?
The self-cleavage was 2.6.

For A6G G8U U12G G58A U91C U100C A141G, which self-cleavage is on record?
Its self-cleavage is 0.

For A79U C111U U130A, which self-cleavage is on record?
The self-cleavage was 2.

Which self-cleavage does the source give for A2C A78G U104C G122A here?
The self-cleavage was 1.05.

For G36C A42U A59G G89A, which self-cleavage is on record?
Its self-cleavage is 0.14.

With U14C U132A A136G as the variant, how does the self-cleavage read?
Its self-cleavage is 1.2.

Which self-cleavage does the source give for U12C U13C U14C C103U U112A A141G here?
The self-cleavage was 0.84.

Which self-cleavage does the source give for U13C U29A G44U U134C here?
The self-cleavage was 0.92.

Which self-cleavage does the source give for U39C A77G A142G here?
Its self-cleavage is 1.84.

Which self-cleavage does the source give for A2G A22U U52C here?
Its self-cleavage is 0.77.

Which self-cleavage does the source give for U13C G72A U100C A140U here?
Its self-cleavage is 0.15.

Which self-cleavage does the source give for C3U U14C A77G A107G here?
The self-cleavage was 0.

With A64U A67G C131U as the variant, how does the self-cleavage read?
Its self-cleavage is 0.04.

With U102C A124G A140G as the variant, how does the self-cleavage read?
The self-cleavage was 0.

Which self-cleavage does the source give for U23C U46C A94G C123U A138G here?
Its self-cleavage is 0.51.

Which self-cleavage does the source give for U14C A69U A136U here?
Its self-cleavage is 0.03.

For G4A U81C C133U, which self-cleavage is on record?
The self-cleavage was 1.01.

For A22G A43G U81A, which self-cleavage is on record?
The self-cleavage was 0.9.

With U12G U102C A142G C146U as the variant, how does the self-cleavage read?
The self-cleavage was 1.84.

For U12C U13A A107G C113G, which self-cleavage is on record?
The self-cleavage was 0.45.

Which self-cleavage does the source give for A78G U102C C116A here?
Its self-cleavage is 0.75.

Which self-cleavage does the source give for U15C U39C A65U C103A here?
Its self-cleavage is 0.25.

Which self-cleavage does the source give for A77U A94G U96A G125U U130C here?
Its self-cleavage is 0.

With U45C U47C U85C A141G as the variant, how does the self-cleavage read?
The self-cleavage was 0.23.

For U13A U23G C113A, which self-cleavage is on record?
Its self-cleavage is 0.55.

Which self-cleavage does the source give for U1C U15A A59C here?
Its self-cleavage is 0.31.

With A30G U47C A67G as the variant, how does the self-cleavage read?
Its self-cleavage is 0.

For U26C A31G A59G, which self-cleavage is on record?
Its self-cleavage is 0.

With U15A G32A C110U C131G as the variant, how does the self-cleavage read?
The self-cleavage was 1.01.

Which self-cleavage does the source give for U39C A64G U115C here?
Its self-cleavage is 1.06.

Which self-cleavage does the source give for G10U G74A U85C A140G here?
The self-cleavage was 0.08.
